Laboratory results as given in PubChem BioAssay AID1508623 (National Center for Advancing Translational Sciences (NCATS), 2021).
In all, about 48,000 compounds went through this assay and about 450 (0.94%) were called active. Inconclusive results (about 19%) are left out. The call rests on the fitted dose curve; in most records, active means well fitted inhibition curve with a large enough effect; inconclusive means small, poorly fitted or top-dose-only effect; inactive means no such curve, though single readings can be large or run the other way. The list shows a part of the results.

experiment: Primary qHTS for Identification of Small Molecule Inhibitors of Huntingtin Promoter Activity; details: HEK293 HTT promoter firefly luciferase reporter (activity 0% = vehicle and -100% = no light), 24 h; series mostly up to 57.5 µM; activity change, negative = inhibition: at the top concentration; further: nearly all actives have a fitted effect of over 50% in size
How it was run: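 HEK293 Fluc reporter, 2,500 cells/well, 24 h pre-culture; cpds up to 57.5 uM final, 24 h 37 degrees C; Dual-Glo, 10 min RT; normalized vehicle = 0%, zero RLU = -100%.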

Row | SMILES | activity change, negative = inhibition
1 | COc1cccc(CNCCSc2nnnn2C)c1OCc1ccccc1 | inactive: -8.67%
2 | COC(=O)CC1Oc2ccccc2-n2cc(-c3ccc(C)cc3)nc21 (configuration not stated) | inactive: -5.87%
3 | NC[C@@H]1O[C@@H](O[C@H]2[C@@H](O)[C@H](O[C@@H]3[C@@H](O)[C@@H](N)C[C@H](N)[C@H]3O[C@H]3O[C@H](CN)[C@@H](O)[C@@H](O)[C@H]3N)O[C@H]2CO)[C@H](N)[C@@H](O)[C@@H]1O | inactive: 7.06%
4 | Cc1ccc(S(=O)(=O)NCC2CCC(C(=O)NCc3ccc(F)cc3)CC2)cc1 (configuration not stated) | inactive: -4.37%
5 | COc1ccc(C)cc1NC(=O)C1CCN(S(=O)(=O)c2c(C)noc2/C=C/c2ccco2)CC1 | inactive: -7.79%
6 | C#C[C@]1(O)CC[C@H]2[C@@H]3CCC4=CC(=O)CC[C@@H]4[C@H]3CC[C@@]21CC | inactive: 7.79%
7 | COc1cccc(-n2c(-c3ccc(Cl)cc3)cc3c2CC(C)(C)CC3=O)c1 | inactive: -29.7%
8 | O=C(Nc1ccc(F)cc1F)C(Cc1ccccc1)N1Cc2ccccc2C1=O (configuration not stated) | inactive: -24.2%
9 | O=C(CCC(=O)N1CC2CCCN2c2ccccc21)NCc1cccc(Cl)c1 (configuration not stated) | inactive: -23.4%
10 | COc1cc2c(=O)n(Cc3ccccc3Cl)c(=O)n(CC(=O)Nc3ccccc3)c2cc1OC | inactive: -16.9%
11 | Cc1ccc(C(=O)Nc2nc3ccc(S(=O)(=O)N4CCCC4)cc3s2)cc1 | inactive: 7.61%
12 | Cc1ccc(-c2nnc(SCC(=O)NC3CCCC3)nc2-c2ccc(C)cc2)cc1 | inactive: -23.4%
13 | COc1ccc(CN2C(=O)c3oc4ccc(F)cc4c(=O)c3C2c2ccc(O)cc2)cc1 (configuration not stated) | inactive: -2.93%
14 | CCOc1ccc(NC(=O)CCC(=O)N2CC(C)Oc3ccc(C)cc32)cc1 (configuration not stated) | inactive: -23%
15 | O=C(/C=C/c1ccccc1)NCCO | inactive: -0.382%
16 | Cc1nc(N2CCOCC2)c2c(C(=O)NCCc3ccccc3)c(C)oc2n1 | inactive: 27%
17 | Cc1ccc(C(=O)n2nc(-c3ccco3)nc2NCc2cccs2)cc1 | inactive: -2.78%
18 | CCOC(=O)C1CCN(S(=O)(=O)c2cc3c4c(c2)CC(=O)N4CCC3)CC1 | inactive: -22.4%
19 | CC1(C)[C@@H](OC(=O)CCC(=O)O)CC[C@]2(C)[C@H]3C(=O)C=C4[C@@H]5C[C@@](C)(C(=O)O)CC[C@]5(C)CC[C@@]4(C)[C@]3(C)CC[C@@H]12 | inactive: 8.44%
20 | O=C(NCCc1ccccc1)C1(c2cccs2)CCOCC1 | inactive: -7.38%
21 | CN(C)S(=O)(=O)n1cc(/C=C(\NC(=O)c2ccccc2Cl)C(=O)NCCCn2ccnc2)c2ccccc21 | inactive: -1.35%
22 | CCN(CC)CCNC(=O)c1nn(-c2ccc(OC)c(Cl)c2)c(=O)c2c1c1ccccc1n2C | inactive: 7.61%
23 | O=C(CSc1nc2c(c(=O)[nH]1)CN(Cc1ccc(F)cc1)CC2)Nc1ccccc1Cl | inactive: -21.1%
24 | O=C(NCCc1ccccc1Cl)c1ccc2c(c1)nc1n2CCOC1 | inactive: 22.8%

Row | SMILES | activity change, negative = inhibition
25 | COc1cccc(C(=O)N2c3nc(-c4ccco4)nn3C3(CCCCC3)[C@@H]3CCCC[C@@H]32)c1 | inactive: -33.4%
26 | CCCNC(=O)c1c(C)nn(-c2cccc(C)c2)c1-n1cccc1 | inactive: -26.4%
27 | CCOc1ccccc1CNCCNC(=O)c1nonc1N | inactive: -6.78%
28 | Cc1ccc2ncc3c(-c4ccc(F)cc4)nn(-c4cccc(F)c4)c3c2c1 | inactive: -22.8%
29 | Cc1ccc2c(c1)c1c(c(=O)n(-c3ccccc3C)c(=O)n1CC(=O)N1CCCC1)n2C | inactive: -12.2%
30 | Cc1ccccc1S(=O)(=O)Cc1ccc(C(=O)NC2CCC(C)CC2)o1 (configuration not stated) | inactive: -9.24%
31 | Cc1ccc(CNC(=O)C2CCN(S(=O)(=O)c3ccc4[nH]c(=O)ccc4c3)CC2)cc1 | inactive: -6.5%
32 | Cc1nc2nc[nH]n2c(=O)c1CCC(=O)Nc1ccc(F)cc1 | inactive: 2.59%
33 | CCC(C)NC(=O)CSc1nc2cc3c(cc2c(=O)n1CCCCCC(=O)NCc1ccc2c(c1)OCO2)OCO3 (configuration not stated) | inactive: -9.58%
34 | Cc1nn(-c2ccccc2)c2c1N(CC(=O)N1CCN(c3ccc(F)cc3)CC1)C(=O)CS2 | inactive: -11.4%
35 | O=C(Cn1c(=O)n(Cc2cccs2)c(=O)c2cccnc21)Nc1ccc(F)cc1 | inactive: -29.3%
36 | COc1cccc2cc(C(=O)Nc3ccc(F)c(F)c3)c(=O)oc12 | inactive: -8.43%
37 | CCCCCSc1nnc(-c2ccc(Br)cc2)o1 | inactive: 40.7%
38 | Cc1ccc(Cl)cc1-n1c(=O)c2sc3ccccc3c2n(Cc2ccccc2)c1=O | inactive: -9.74%
39 | CCOc1cc(-c2nnc(SCC(=O)NC3CCCC3)nc2-c2ccc(OC)c(OCC)c2)ccc1OC | inactive: -13.8%
40 | Nc1ncnc(Nc2ccccc2)n1 | inactive: 15%
41 | CC(C)CCN1C(=O)c2ccccc2CC1(C)C(=O)NC1CCC(C)CC1 (configuration not stated) | inactive: -7.22%
42 | CC(C)c1ccc(-c2nc(C(N)=O)c3c(n2)n(-c2ccc4c(c2)OCO4)c(=O)n3C)cc1 | inactive: -7.02%
43 | Cn1c(=O)c(Oc2ccc(F)cc2F)cc2cnc(NC3CCOCC3)nc21 | inactive: -5.44%
44 | CCOc1ccc(NC(=O)Cn2cc(S(=O)(=O)NC)c(S(=O)(=O)NC)c2)cc1 | inactive: 1.7%
45 | CCOC(=O)C1=C(C)NC(=O)NC1c1cn(-c2ccccc2)nc1-c1ccc(OCC)cc1 (configuration not stated) | inactive: -10.9%
46 | Cc1ccc(NC(=O)C2CCCN(c3ncnc4onc(-c5ccc(F)cc5)c34)C2)c(Cl)c1 (configuration not stated) | inactive: 5.62%
47 | CCC(C)NC(=O)Cn1ccc2cc(S(=O)(=O)N3CCCCC3)ccc21 (configuration not stated) | inactive: -14.9%
